The list shows a part of the results. At the low end of the ranking the order means little. Measured with an extract: partners may take part in the binding.

In the assay the target is T1, HNF4alpha2 (COS-7 nuclear extract) (UniProt P41235).
T1 sequence: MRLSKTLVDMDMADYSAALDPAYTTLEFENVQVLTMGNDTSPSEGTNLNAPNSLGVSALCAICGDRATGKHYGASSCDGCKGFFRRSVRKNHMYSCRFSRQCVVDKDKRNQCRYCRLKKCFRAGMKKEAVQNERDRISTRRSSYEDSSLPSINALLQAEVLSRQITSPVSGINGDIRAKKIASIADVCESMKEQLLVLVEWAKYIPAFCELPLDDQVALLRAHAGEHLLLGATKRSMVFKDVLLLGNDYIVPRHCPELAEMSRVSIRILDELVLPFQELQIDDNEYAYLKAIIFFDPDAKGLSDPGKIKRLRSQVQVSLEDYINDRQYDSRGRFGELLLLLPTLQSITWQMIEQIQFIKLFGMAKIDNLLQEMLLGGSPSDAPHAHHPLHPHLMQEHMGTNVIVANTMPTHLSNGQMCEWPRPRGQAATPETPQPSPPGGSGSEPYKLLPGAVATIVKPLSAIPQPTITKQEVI
Kind of assay: protein-binding microarray. Conditions: COS-7 nuclear extract on double-stranded Agilent 4x180k PBM; binding buffer, salt, pH and temperature not given; high values mean tight binding; double strand, one strand shown; sequences stand for … in …GCCTAGGGAGATTAGAGTATCGGTCGA
Regarding TTTATTAGGGGTCAGCAAAGAACTCCCCAG, the binding signal (log2 normalized intensity) worked out at 1.73.
CCCAGGCCGTTGGACCAAGCTCTAGCATCC: the binding signal (log2 normalized intensity) was -1.17.
For the sequence GGGTTTGACCGTTCTCTCCGGGTAAAGGTG, the binding signal (log2 normalized intensity) was 1.87.
For CACAAAGTACAGCTTTTTGTTTGTGTAAGT, the binding signal (log2 normalized intensity) was 2.05.
Consider CAGTGTTTACCGGATGAAAAGTGTTTGCCA, for which the binding signal (log2 normalized intensity) worked out at 1.49.
The result for CCTCCCCGCCACCCCCCAGAGGGCCATCTA reads 5.83; that for TCAGGCTGAGGTGCTCTCAGATAAGAGATG, -0.855.
Under ATTAACCAAAGCTACACAGATAAGCCATTC stands -1.15; under GGAATGGCAGTGCTTGTCCAAGATGGCAAT, -1.17; under CTGCACTGACACTGTCCCAGCTGAGATTCA, -1.1.
The result for CCGATCCTTACTATTAGGTCTTTGAAGTTG reads 1.68; that for ATCAGCAGCCCAGCATACCATTCCCACCCC, 4.29.
Take TCAATGACTACCTGTTACCCACCTGATATT: the binding signal (log2 normalized intensity) was found to be 1.16.
Under TCACCTGGAGAAGCAGAAGCTGCACACATG stands -1.09.
Under GGGTCATTTTATGGGAAAACAGAATGGTCT stands 1.54; under CTAGTTCATTAAACATGTTTACTCTGGTCC, 1.61.
The result for CTGGTGGAGGGGACCTTTTCCTCGGGTGTC reads 0.956; that for TGACACAGCCACAAAAACCAAAGGTCACTT, 4.39.
ATGCAAACAGCAGCCACATTCCATGAGCTG: the binding signal (log2 normalized intensity) is -1.11.
Consider TTTTTAGATAGTGACTTGAAAGGGACTTAG, for which the binding signal (log2 normalized intensity) is 0.421.
Consider TTTGCAAGTGGAGATTTCAGCCGCTTTGAG, for which the binding signal (log2 normalized intensity) is -1.15.
The result for ACCCAGAACCCCCAGGTCACCCACAACCTA reads 4.08; that for TTTTAAAATAGATAAGTCCCTAAGAGGAAT, -0.74.
The result for AAAGCCAGCTGTCTATCCTTATTTATCTTC reads -1.13; that for CTCTGAGATTCGGTGAGGGATTGTTTAGGT, 0.957.
The result for CTCTTGTAATTTAAGTGGTTCACAAACATT reads 1.73.
As to CAAGGCAGCTCAGCTAGTGAGATACGGCCT, the binding signal (log2 normalized intensity) is -1.1.
Turning to TCTGTTTGAGGTTCACTGGGGAGACTCTCT, the binding signal (log2 normalized intensity) was 0.44.
The result for TTTTTTCAAGTGTTAGCTGTTTCCAAATAT reads 1.42.
The result for GCCCAGCAGAGCAGTTTAGAGAAAGGGTCA reads 2.
As to GAAATACAGTAGACTTTTTTTTTCTTAATT, the binding signal (log2 normalized intensity) was -0.841.
Turning to GGAGCTGTGGGCCTCACACCCTCTAGGGTA, the binding signal (log2 normalized intensity) was -1.14.
The result for TTTTAAATACCTTTTTGGGACTGATAACTT reads 0.85; that for CACCTTTGAAATCTCAAATAGCTGGGTCTC, 0.905.
Regarding ATTACTTCTCAACTGATATGGCTCTGTTTT, the binding signal (log2 normalized intensity) was 1.08.
The result for GAGCTTCTGTCTTGGACTGCGAAAGATAAA reads -0.124.
As for GGCCAGGGAGTACACCCCTCACTCCCTCCA, the binding signal (log2 normalized intensity) came to 2.85.
The result for CCTCCCAGGGACACATGCCCCTTCCCTCCC reads 4.11; that for TCCAACCCTCCGTTTCTCTGGGCCTGATAG, -1.18.
The result for CCTGTGACCAAGAATGCCTAACCTCCTAGG reads -1.11; that for ACAAAGCCTGGGGTTTGGCTCCAAGGCTGA, -1.13.
Under GCATGACTACATTCTTTGAAGACTAGGCTC stands -1.06.
CCACTGAGACGGGCTGAGGATGAGGACTTT: the binding signal (log2 normalized intensity) was 2.83.
The result for AACCATCTGGCTTGGCCCCCGGACCCAAAG reads 4.03; that for AAAGCCCATTAAATCTTCCCTCCTGTGAAC, 0.779; that for TCTGATACATTGGACAACTGTACTTTGGAC, 7.2.
Under GATAAGGCGTCTTATCAGCCCCCATGTCAG stands 3.31; under TTCTGTTCAATGGTGCTTTTGATATTGTTG, 2.06; under GACTCGAATGCGAACCTGTCTCCAGAGGAC, -1.03.
Under TAGTTAGGGCCTTGCAGGGGGCCTCCTGCC stands -1.03; under TTGGGGCTGATGTGCACAGTCCACAGAAAC, 0.0465.
As to CATTCTTTCCAGCTTTGATAGTCTGCTACC, the binding signal (log2 normalized intensity) amounted to 1.59.
Under GCAACTGGTGAGCAGGTTAATTATAATCGC stands 0.694; under GAGAACAGGTTCATTCTTTAAGTGTGGGGT, 1.46; under TACATTTGACTGAGGTGCAGGACAAAGTGT, 1.03.
Under TTCCCCATATTCGTCCAGTTACTGAAAGGG stands 0.807; under GGCATCTAACCTTCGTCCTTGCCCCTGGCT, 2.6.
Under AGTCAATCCCGTGGACTTTGCCTGCCCATC stands 4.01.
In the case of CAGCAGGAGACCTGAAACTAGACCAAGAAG, the binding signal (log2 normalized intensity) was -1.18.
The result for GGATTGTTACATCATAGTGTTTGCCTTATT reads 1.37; that for CTTAGCAGAAGCCCTCCTGGACATTGTGTG, 1.52.
The result for TCGGGGCATGCACTGTTTGCCATAGATCCC reads -0.958; that for CTCATTTATTATTTGTCTGGGTTATCAGTC, 1.97; that for CGGGTGTTTCTGGGAGTTGTGGTCCGCAGG, 1.01.
Under CCTTTGATCTCCGTGTTTGGAATTGTGTCA stands 2.3.
In the case of TCAAGTGTGCACACTTAGAAAATGCCCTCA, the binding signal (log2 normalized intensity) was 2.93.
Consider TCTGCTGTTTGTTTCACTAATGTAGATTTT, for which the binding signal (log2 normalized intensity) turned out to be 1.1.
Under TTCAGAGGCCAGCAGTGCTTTTCCCAGGAA stands -1.12; under ATAGACTTAAGTCTGAATTCTAGTCCTATC, -1.13.
The result for CTTTTCCTTTTTGCATGAGAATCTGACCTT reads 4.25; that for TCCCATCTGTGCTCATTATTATCAGCAAGA, -0.325; that for GGCTTGATCCCTGAACTTTGCTCCCACCCT, 5.57.

(Values after paper PMC10726135.)
